# Measured values published in PubChem BioAssay AID894 (National Center for Advancing Translational Sciences (NCATS), 2007).
# Several values for one entry are separate records, joined by “and”; a condition that tells them apart may be missing. Equal entries are not always repeated. Among all 150,000 compounds or so, about 6,500 (4.3%) were called active. Inconclusive results, whose numbers are uncertain, are shown with a selection of clear calls. The call rests on the fitted dose curve; in most records, active means well fitted inhibition curve with a large enough effect (not every such curve was filed as active); inconclusive means small, poorly fitted or top-dose-only effect, or another doubt; inactive means no such curve, though single readings can be large or run the other way. Potencies of inconclusive entries are left out as doubtful fits.
# Target: 15-hydroxyprostaglandin dehydrogenase [NAD(+)] (Homo sapiens) (UniProt P15428)
# Chain of UniProt P15428 (P15428 whole entry, looked up): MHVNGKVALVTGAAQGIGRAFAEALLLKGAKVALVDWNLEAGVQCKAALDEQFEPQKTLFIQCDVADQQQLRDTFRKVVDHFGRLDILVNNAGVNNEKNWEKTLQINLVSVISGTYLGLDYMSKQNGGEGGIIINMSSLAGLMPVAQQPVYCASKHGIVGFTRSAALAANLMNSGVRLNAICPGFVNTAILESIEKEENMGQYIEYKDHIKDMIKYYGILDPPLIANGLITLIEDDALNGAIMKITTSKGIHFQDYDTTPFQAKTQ
# Test: qHTS Assay for Inhibitors of HPGD (15-Hydroxyprostaglandin Dehydrogenase)
# Details: purified HPGD, NADH fluorescence kinetic, PGE2 substrate; activity change, negative = inhibition: hits give low values
# Method in brief: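 20 nM HPGD preincubated 15 min at room temperature with compound in 50 mM Tris-HCl pH 8, 0.01% Tween 20. Started with 1 mM NAD+ and 30 uM prostaglandin E2; NADH fluorescence (360/450 nm) read 5 times over 30-s intervals, last minus first.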
# On the % scale 0 is the no-effect control and ±100 the full control effect; potency means the concentration at half of the fitted maximal effect; tags describe the fitted curve by direction and shape.
Structure (SMILES),Potency,"activity change, negative = inhibition"
COc1ccc(-c2nc(NC(=O)CSc3nnc(C)s3)ns2)cc1,"inconclusive [inhibitor, partial curve]",–
CCOC(=O)N1CCN(C(=O)CSCc2ccccc2Cl)CC1,–,inactive: -0.312%
COc1ccc2nc(NC(=O)c3cccc(OCc4c(C)noc4C)c3)sc2c1,"inconclusive [inhibitor, partial curve]",–
CCN(CC)CCNc1nc2c(c(=O)[nH]c(=O)n2C)n1CC(O)COc1ccc(Cl)cc1Cl (stereo not given),–,inactive: -19.9%
CN1c2cccc3cccc(c23)N(C)C1(C)C,"inconclusive [inhibitor, partial curve]",–
COc1ccc(-c2cc(C(=O)N3CCN(c4ccccc4)CC3)c3ccccc3n2)cc1OC,"inconclusive [inhibitor, partial curve]",–
C1=C(CCNC2=NCCCCC2)CCCC1,–,inactive: -18.9%
O=C(COc1ccccc1)NCc1ccccc1,active: 28.2 µM,–
COc1ccc(-c2nc(C(=O)N3CCN(C)CC3)sc2-c2ccc(OC)cc2)cc1,"inconclusive [inhibitor, partial curve]",–
CC(C)Cn1c(-c2cccs2)nc2ccccc21,"inconclusive [inhibitor, single point]",–
Cc1nn2c(N3CCCC3)cc(C(C)C)nc2c1-c1ccccc1,"inconclusive [inhibitor, partial curve]",–
O=C1NC(c2ccc3c(c2)OCO3)Nc2ccccc21 (stereo not given),"inconclusive [inhibitor, partial curve]",–
CCOC(=O)c1c(C)c(C(=O)NCc2ccccn2)c(C)n1CC,–,inactive: -10.9%
COc1cc(/C=N/NC(=O)c2cc3ccccc3cc2O)ccc1OCCN1CCCCC1,"inconclusive [inhibitor, partial curve]",–
O=C(c1cc2ccccc2c(=O)o1)N1CCc2ccccc2C1,active: 25.1 µM,–
Cc1ccc(/C=N/Nc2nc(Cl)c(Cl)cc2Cl)s1,"inconclusive [inhibitor, partial curve]",–
COC(=O)CSc1nc2c(c(-c3ccc(C)o3)c1C#N)CCCC2,"inconclusive [inhibitor, partial curve]",–
CCCCNC(=O)C(=O)N/N=C/c1ccc(OCC(=O)Nc2cccc(OC)c2)c(OC)c1,"inconclusive [inhibitor, partial curve]",–
CCOc1ccc(/C=C2\SC(=O)N(CCNC(=O)C3COc4ccccc4O3)C2=O)cc1OC (stereo not given),"inconclusive [inhibitor, partial curve]",–
Cc1ccc(S(=O)(=O)N2CCC(=O)N(CCOCc3cccc(C(F)(F)F)c3)CC2)cc1,–,inactive: -2.31%
O=C(Nc1ccc2nn(-c3ccccc3)nc2c1)c1ccco1,"inconclusive [inhibitor, partial curve]",–
Cn1nc(C(=O)NC(C)(C)C)c2ccccc21,–,inactive: -8.62%
Cc1ccc(-n2c(=O)c3sccc3n(Cc3cc(=O)n4cc(Cl)ccc4n3)c2=O)cc1F,"inconclusive [inhibitor, partial curve]",–
O=C(NCCN1CCOCC1)c1ccc(F)cc1,–,inactive: -8.7%

Structure (SMILES),Potency,"activity change, negative = inhibition"
CCCCCCc1nc2ccccc2c(=O)n1NC(=O)c1c(O)c2cccc3c2n(c1=O)CCC3,–,inactive: -19.3%
CCOc1cc(S(=O)(=O)NC2CCCCCC2)ccc1F,active: 25.1 µM,–
O=C(Nc1cccc(Cl)c1Cl)c1ccc(-c2ccccc2)cc1,"inconclusive [inhibitor, partial curve]",–
COc1ccc2c(c1)C(=O)[C@@H](OC(=O)NCc1ccco1)[C@H](c1ccc(OC)c(Br)c1)O2,–,inactive: -14.5%
Cc1ccc(Cl)cc1Nc1nc(-c2sc(NC(=O)c3ccccc3)nc2C)cs1,"inconclusive [inhibitor, single point]",–
Cc1cc(=O)n2[nH]c(-c3ccc(F)cc3)cc2n1,"inconclusive [inhibitor, partial curve]",–
CCOC(=O)c1c(NC(=O)c2nn(CC)cc2Br)sc(C)c1C,"inconclusive [inhibitor, partial curve]",–
COc1ccc2[nH]c(=O)c(CN(C(C)=O)C3CCCCC3)cc2c1,"inconclusive [inhibitor, partial curve]",–
Cc1cc(C)c(NC(=O)c2cn3c4c(c(N5CCN(C)CC5)c(F)cc4c2=O)OCC3C)c(C)c1 (stereo not given),"inconclusive [inhibitor, partial curve]",–
COC(=O)c1[nH]c2ccc(C)cc2c1NC(=O)NC1CCCCC1,–,inactive: -12.4%
COCc1cc(C)nc(NCCc2ccccc2)c1C#N,"inconclusive [inhibitor, partial curve]",–
COc1ccc(C(=O)N2C(=S)NC(=O)/C2=C\c2ccc(C)cc2)cc1,active: 28.2 µM,–
COc1ccc(-c2nn(-c3ccccc3)cc2/C=N/NC(=O)c2ccc3c(c2)OCO3)cc1,"inconclusive [inhibitor, single point]",–
CC(=O)c1cccc(NC(=O)N2CCCC2C(=O)Nc2cccc(C)c2)c1 (stereo not given),–,inactive: -6.93%
C=CCn1c(Br)nc2c1c(=O)[nH]c(=O)n2C,–,inactive: -17.3%
CC#C[C@@]1(O)CC[C@H]2[C@@H]3CCC4=CC(=O)CCC4=C3[C@H](c3ccc(N(C)C)cc3)C[C@]21C,–,inactive: 4.89%
CCCCc1ccc(C2C(C#N)=C(N)SC(N)=C2C#N)s1,active: 14.1 µM,–
COc1ccccc1N1CCN(Cc2cc(Br)c(O)c3ncccc23)CC1,–,inactive: -4.97%
CCC(C)Sc1nc2ccccc2n1CC(=O)O (stereo not given),–,inactive: -6.39%
O=C(Nc1cccc(C(F)(F)F)c1)c1cccnc1NCCc1ccccc1,"inconclusive [inhibitor, single point]",–
CN(CCO)C(=O)CCC(=O)Nc1ccc(S(N)(=O)=O)cc1,–,inactive: -8.04%
O=C(Cc1cn(Cc2cccc(Cl)c2)c2ccccc12)N1CCCC1,–,inactive: -5.71%
CCOc1ccc(CCNC(=O)C2CCCN(C(=O)N(C)C)C2)cc1OCC (stereo not given),–,inactive: -12.1%
Cc1ccc(F)cc1NC(=O)c1cccc(N(C)C)c1,"inconclusive [inhibitor, single point]",–

Structure (SMILES),Potency,"activity change, negative = inhibition"
COC(=O)C1C(=O)C2=C(CC1C)NC(C)=C(C(=O)OC1CCCCC1)C2c1ccc(N(C)C)cc1 (stereo not given),–,inactive: -15.8%
CN1CCN(C2=C(Cl)C(=O)N(c3cccc(Cl)c3)C2=O)CC1,–,inactive: -1.38%
CCOc1ccc2nc(NC(=S)N(C)C)sc2c1,active: 14.1 µM,–
COC(=O)c1c(-c2cccs2)csc1NC(=O)c1cccnc1,"inconclusive [inhibitor, partial curve]",–
Cc1ccc(CNC(=O)c2cc3c(-c4ccc(Cl)cc4)nn(C)c3s2)o1,"inconclusive [inhibitor, partial curve]",–
CCCCn1c(CNC(=O)CCC)nc2ccccc21,"inconclusive [inhibitor, single point]",–
CCOC(=O)CSc1nc2ccc(N3CCOCC3)cc2c(=O)n1Cc1ccc2c(c1)OCO2,"inconclusive [inhibitor, partial curve]",–
Cc1ccc(C)c2[nH]c(=O)c(CCNC(=O)C(C)(C)C)cc12,"inconclusive [inhibitor, single point]",–
Cc1ccc2[nH]c(=O)c3cc(C(=O)N(CCCOC(C)C)Cc4ccco4)sc3c2c1,"inconclusive [inhibitor, partial curve]",–
Cc1cc(=O)n2ccccc2c1C#N,"inconclusive [inhibitor, partial curve]",–
CCN(CC)S(=O)(=O)c1cccc(-c2nnc(SCc3nnc(-c4cccs4)o3)n2N)c1,"inconclusive [inhibitor, partial curve]",–
C/C(=N\NC(=O)C(=O)Nc1cccc(Cl)c1C)c1ccncc1,–,inactive: -3.59%
COc1cc(OC)cc(C(=O)N(Cc2cc3cc(C)ccc3[nH]c2=O)C(C)C)c1,"inconclusive [inhibitor, partial curve]",–
CC(=O)c1cccc(NC(=O)c2ccc3c(Cl)c4c(nc3c2)CCCC4)c1,"inconclusive [inhibitor, partial curve, poor fit]",–
COc1ccc(CCNC(=O)CSc2nc(O)c(C(C)C)c(=O)[nH]2)cc1OC,–,inactive: -7.87%
CC[C@@]1(O)C(=O)OCc2c1cc1n(c2=O)Cc2cc3cc(O)ccc3nc2-1,–,inactive: -12.9% and inactive: -22.9%
O=C(NCc1ccc2c(c1)OCO2)C12CC3CC(CC(C3)C1)C2,active: 31.6 µM,–
CCn1c(SCC(=O)NC(=O)NCc2ccco2)nc2sc(C)c(C)c2c1=O,"inconclusive [inhibitor, partial curve]",–
Cc1cccc2sc(NC(=O)c3ccc(NS(=O)(=O)c4cccs4)cc3)nc12,"inconclusive [inhibitor, partial curve]",–
CC(C)Oc1cccc(-n2c(CCc3c[nH]c4ccc(Br)cc34)nc3ccccc3c2=O)c1,–,inactive: -18.2%
CCC(=O)Nc1ccccc1C(=O)OC(c1ccccc1)c1ccccc1,"inconclusive [inhibitor, single point]",–
CCOc1cc(NC(=O)c2ccco2)c(OCC)cc1NC(=O)c1cc(OC)c(OC)c(OC)c1,"inconclusive [inhibitor, full curve]",–
